The list shows a part of the results.
Columns and labels:
HSkMC = human skeletal muscle cells; assay: cytotoxicity call (relative viability < 0.9); conditions: 10 µM
HepG2 = assay: cytotoxicity call (relative viability < 0.9); conditions: 10 µM
S. aureus RN4220 = assay: growth inhibition call (relative growth <= 0.2); conditions: 50 µM

COc1ccc(NC(=O)Nc2ccc3c(c2)C(=O)N([C@H](C)CO)C[C@H](C)[C@@H](CN(C)Cc2ccc(C(F)(F)F)cc2)OCCCC[C@@H](C)O3)cc1
inactive: cytotoxicity call (HSkMC) | cytotoxicity call (HepG2) | growth inhibition call (S. aureus RN4220)

C[C@@H]1CN([C@@H](C)CO)C(=O)c2cccc(NC(=O)c3ccncc3)c2O[C@H]1CN(C)Cc1ccc(C(=O)O)cc1
inactive: cytotoxicity call (HSkMC) | cytotoxicity call (HepG2) | growth inhibition call (S. aureus RN4220)

C[C@@H]1CN([C@H](C)CO)C(=O)c2cc(C#Cc3ccccc3F)cnc2O[C@H]1CN(C)S(=O)(=O)c1ccccc1
inactive: cytotoxicity call (HSkMC) | cytotoxicity call (HepG2) | growth inhibition call (S. aureus RN4220)

COCC(=O)Nc1ccc2c(c1)C(=O)N(C)C[C@H](OC)[C@H](C)CN(Cc1ccccc1OC)[C@H](C)CO2
inactive: cytotoxicity call (HSkMC) | cytotoxicity call (HepG2) | growth inhibition call (S. aureus RN4220)

CN1C(=O)c2cc(NC(=O)C3CCOCC3)ccc2OC[C@@H]2O[C@H](CC(=O)NCc3ccccc3F)CC[C@H]21
inactive: cytotoxicity call (HSkMC) | cytotoxicity call (HepG2) | growth inhibition call (S. aureus RN4220)

C[C@@H]1CN([C@H](C)CO)C(=O)c2cccc(NS(=O)(=O)c3ccc(F)cc3)c2O[C@H]1CN(C)C(=O)Nc1cccc2ccccc12
inactive: cytotoxicity call (HSkMC) | cytotoxicity call (HepG2) | growth inhibition call (S. aureus RN4220)

C[C@H](CO)N1C[C@H](C)[C@@H](CN(C)Cc2ccccc2)Oc2ccc(NC(=O)CCN3CCOCC3)cc2C1=O
inactive: cytotoxicity call (HSkMC) | cytotoxicity call (HepG2) | growth inhibition call (S. aureus RN4220)

COC(=O)[C@@H](O)c1ccccc1
inactive: cytotoxicity call (HSkMC) | cytotoxicity call (HepG2) | growth inhibition call (S. aureus RN4220)

C[C@H]1CN([C@@H](C)CO)C(=O)Cc2cc(NC(=O)c3ccncc3)ccc2O[C@H]1CN(C)S(=O)(=O)c1cn(C)cn1
inactive: cytotoxicity call (HSkMC) | cytotoxicity call (HepG2) | growth inhibition call (S. aureus RN4220)

COc1ccc(S(=O)(=O)Nc2ccc3c(c2)C(=O)N([C@H](C)CO)C[C@H](C)[C@@H](CN(C)C(=O)c2ccccc2)OCCCC[C@@H](C)O3)cc1
inactive: cytotoxicity call (HSkMC) | cytotoxicity call (HepG2) | growth inhibition call (S. aureus RN4220)
